Experimental data from PubChem BioAssay AID540317 (National Center for Advancing Translational Sciences (NCATS), 2011).
Among all 390,000 compounds or so, about 2,200 (0.56%) were called active. The shares of active, inactive and inconclusive entries below differ from those in the screen. Calls follow the shape of the dose curve; as a rule, active = well fitted inhibition curve with a large enough effect; inconclusive = small, poorly fitted or top-dose-only effect; inactive = no such curve, though single readings can be large or run the other way. Potencies of inconclusive entries are doubtful fits and often do not repeat.

target: Chromobox protein homolog 1 (Homo sapiens) (UniProt P83916); experiment: HTS for Inhibitors of HP1-beta Chromodomain Interactions with Methylated Histone Tails; details: AlphaScreen HP1-beta / biotin-H3K9me3 peptide binding; series mostly up to 114 µM; also: nearly all actives have a fitted effect of over 70% in size
UniProt P83916, sequence (P83916 whole entry, looked up): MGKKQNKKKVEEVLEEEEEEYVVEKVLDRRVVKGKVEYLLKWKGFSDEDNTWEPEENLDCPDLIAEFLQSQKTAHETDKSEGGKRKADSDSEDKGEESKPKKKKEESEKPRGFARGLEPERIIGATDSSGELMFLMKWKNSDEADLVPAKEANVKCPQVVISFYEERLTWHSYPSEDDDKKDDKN
How it was run: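 AlphaScreen: HP1-beta (50 nM) preformed 30 min with biotin-H3(1-18)K9me3 peptide (50 nM) in PBS pH 7.4, 0.01% Tween-20. Compound added for 30 min at RT, then streptavidin donor/nickel chelate acceptor beads (10 ug/mL) for 30 min.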
Potency is read from the fitted curve at half-maximal effect; tags tell the direction and shape of the fitted curve.

| SMILES | Potency |
| --- | --- |
| COc1cccc(CN2CCN(S(=O)(=O)c3ccccc3)CC2)c1OC | inconclusive: 14.1 µM [inhibitor, full curve] |
| Clc1ccc(CN2CCC(c3ccccc3)CC2)cc1 | inactive |
| CCCCC(CCC(=O)Nc1cccc([N+](=O)[O-])c1)C(=O)O (configuration not stated) | inactive |
| Cc1ccc(-c2nc3cnccn3c2Nc2ccc3c(c2)OCO3)cc1 | inconclusive: 50.1 µM [inhibitor, partial curve] |
| COc1ccc(CNCCNC(=O)c2cccs2)c(OC)c1OC | inactive |
| CC(C)(C)c1ccc(C(=S)N2CCN(c3ccccc3)CC2)cc1 | inconclusive: 14.1 µM [inhibitor, full curve] |
| COc1ccc(CN2CCSCC2)c(OC)c1C | inconclusive: 56.2 µM [inhibitor, single point] |
| Nc1ncnc2[nH]c(=S)[nH]c12 | inconclusive: 56.2 µM [inhibitor, partial curve, poor fit] |
| CC(C)OC(=O)c1ccc(NC(=O)CSc2nc3ncccc3[nH]2)cc1 | inactive |
| Cc1ccc(OCCCCNC2CCCC(C)C2C)c(C)c1 (configuration not stated) | inconclusive: 14.1 µM [inhibitor, partial curve, poor fit] |
| O=C(NCCCN1CCOCC1)c1cccc(S(=O)(=O)Nc2ccc(F)cc2)c1 | inconclusive: 22.4 µM [inhibitor, single point] |
| C#CCOCCOCCOCCNc1nc(N2CCN(C(=O)CCCCCCCCCCNC(=O)Cn3cc(CCCCCN)nn3)CC2)nc(N2CCN(C(=O)CCCCCCCCCCNC(=O)[C@@H](CCSC)n3cc(CCO)nn3)CC2)n1 | inconclusive: 70.8 µM [inhibitor, partial curve] |
| CN(C)c1ccc(CNC(=O)CCn2cccn2)cc1 | inconclusive: 89.1 µM [inhibitor, partial curve, poor fit] |
| Cc1ccc(N(C(=O)c2csnn2)C(C(=O)NCc2ccccc2)c2cccnc2)cc1 (configuration not stated) | inconclusive: 89.1 µM [inhibitor, partial curve, poor fit] |
| CCOc1cccc(C=NNc2ccc(S(=O)(=O)Nc3ccccc3C(=O)O)cc2[N+](=O)[O-])c1O | inconclusive: 56.2 µM [inhibitor, partial curve, poor fit] |
| Cc1ccc(CO/N=C\Cc2snc(Sc3ncc(C(F)(F)F)cc3Cl)c2C#N)cc1 | inconclusive: 5.01 µM [inhibitor, partial curve, poor fit] |
| CN(C(=O)CSc1nnc2ccccn12)c1c(N)n(Cc2ccccc2)c(=O)[nH]c1=O | inconclusive: 89.1 µM [inhibitor, single point] |
